Reference: the supplement of paper PMC10369915
Some of the results follow. Rule as the data show it: active = 3.2 or more and inactive = the rest. Most of these values are background signal.

B1: BRCA2_Y2624_I2627F (peptide)
chain: WVYNHYRWFIW
B2: BEST1_Y227 (peptide)
chain: GHLYAYDWISI
B3: BIN1_Y150 (peptide)
chain: RKLVDYDSARH
B4: BMPR1A_Y457_M460T (peptide)
chain: EYQLPYYNTVP
B5: BEST1_Y148_A146K (peptide)
chain: VSTKVYKRFPS
B6: BEST1_Y148 (peptide)
chain: VSTAVYKRFPS
B7: BMP15_Y235_Y235C (peptide)
chain: AFLLLCFNDTH
B8: BEST1_Y227_Y227C (peptide)
chain: GHLYACDWISI
B9: BOD1_Y82 (peptide)
chain: DTKPAYQNLRQ
B10: BMPR1A_Y467_M470T (peptide)
chain: PSDPSYEDTRE
B11: BRD2_Y715_P714L (peptide)
chain: KPRKLYTIKKP
B12: BRCA2_Y3009_T3013I_YF (peptide)
chain: KRFRIYHLAIS
B13: BPIFB2_Y36 (peptide)
chain: KAALSYVSEIG
B14: BICD2_Y538 (peptide)
chain: ELANLYHHVCM
B15: BRCA2_Y2624_YF (peptide)
chain: WVFNHYRWIIW
B16: BMPR1A_Y457_YF (peptide)
chain: EFQLPYFNMVP
B17: BMPR2_Y979 (peptide)
chain: RVKTPYSLKRW
B18: BEST1_Y227_D228N (peptide)
chain: GHLYAYNWISI
B19: BMPR1A_Y453_V450M (peptide)
chain: GIMEEYQLPYY

These binders were tested against SHP2 C-SH2 domain E139D (assay: enrichment score (SH2-bound / input frequency) (ratio); bacterial display of known human phosphotyrosine sites (pTyr-Var adds point mutants) read by sequencing; higher = stronger binding; tyrosines were phosphorylated by kinases first). Conditions: peptide library: pTyr-Var.
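Also: displayed peptides selected on beads carrying the immobilized SH2 domain, with library peptides lacking any tyrosine serving as negative controls.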

Enrichment score, active:
B12 3.98
B17 3.28

Enrichment score, inactive:
B1 1.92
B2 2.95
B3 0.82
B4 2.48
B5 0.562
B6 0.833
B7 1.7
B8 1.14
B9 1.29
B10 0.695
B11 0.852
B13 0.784
B14 1.23
B15 2.71
B16 1.82
B18 2.18
B19 1.25

The binders below were run against SHP2 C-SH2 domain wild-type in the same assay as above. Conditions: peptide library: pTyr-Var.

Enrichment score, inactive:
B1 1.86
B2 2.87
B3 0.695
B4 2.47
B5 0.634
B6 0.705
B7 1.99
B8 1.23
B9 1.11
B10 0.308
B11 0.573
B13 0.812
B14 1.75
B15 3.11
B16 2.01
B17 2.56
B18 2.17
B19 1.11

Enrichment score, active:
B12 3.38

These binders were tested against SHP2 N-SH2 domain L43F in the same assay as above. Conditions: peptide library: pTyr-Var.

Enrichment score, active:
B12 3.51

Enrichment score, inactive:
B1 1.81
B2 2.92
B3 0.606
B4 2.15
B5 0.424
B6 0.71
B7 1.64
B8 1.41
B9 1.12
B10 0.753
B11 0.663
B13 0.722
B14 1.08
B15 3.14
B16 1.35
B17 2.76
B18 1.86
B19 1.36

These binders were tested against SHP2 N-SH2 domain T42A in the same assay as above. Conditions: peptide library: pTyr-Var.

Enrichment score, active:
B4 3.36
B12 3.3

Enrichment score, inactive:
B1 1.83
B2 2.71
B3 0.609
B5 0.717
B6 0.644
B7 1.85
B8 1.08
B9 1.13
B10 0.62
B11 0.569
B13 0.718
B14 1.12
B15 2.61
B16 1.84
B17 3.06
B18 1.83
B19 0.864

Each binder was assayed against SHP2 N-SH2 domain T52S in the same assay as above. Conditions: peptide library: pTyr-Var.

Enrichment score, inactive:
B1 1.9
B2 2.95
B3 0.632
B4 2.29
B5 0.613
B6 0.748
B7 1.66
B8 1.09
B9 1.2
B10 0.658
B11 0.59
B13 0.714
B14 1.14
B15 2.71
B16 1.6
B17 2.88
B18 1.78
B19 0.936

Enrichment score, active:
B12 4.39

The binders below were run against SHP2 N-SH2 domain wild-type in the same assay as above. Conditions: peptide library: pTyr-Var.

Enrichment score, inactive:
B1 2.05
B2 3.11
B3 0.791
B4 2.13
B5 0.614
B6 0.9
B7 2.04
B8 1.64
B9 1.16
B10 0.957
B11 0.61
B12 3.01
B13 0.775
B14 1.47
B15 3.07
B16 1.36
B17 2.7
B18 2.36
B19 1.12
